Data reported in publication PMC1914345.
No constants are given. Whether binding was seen depends on the method and setting. In cells and extracts the contact can be indirect. Some binding calls cover weakened binding; strength is not graded here. Tags and fused reporters may be left off the sequences shown.

Chains of the proteins cited; added tags and fusions are not shown.
UniProt P34148: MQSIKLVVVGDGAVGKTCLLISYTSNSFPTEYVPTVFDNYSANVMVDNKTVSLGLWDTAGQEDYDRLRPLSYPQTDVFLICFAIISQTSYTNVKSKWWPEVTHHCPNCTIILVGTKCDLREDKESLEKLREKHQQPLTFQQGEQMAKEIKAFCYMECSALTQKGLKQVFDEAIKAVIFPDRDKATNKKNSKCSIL
UniProt Q9GPR7: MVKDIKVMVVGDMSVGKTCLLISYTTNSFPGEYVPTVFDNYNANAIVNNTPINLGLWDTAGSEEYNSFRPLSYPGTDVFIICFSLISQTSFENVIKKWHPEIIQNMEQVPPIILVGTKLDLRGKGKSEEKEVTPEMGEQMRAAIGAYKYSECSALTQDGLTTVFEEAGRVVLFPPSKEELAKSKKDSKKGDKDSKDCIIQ
UniProt P34150: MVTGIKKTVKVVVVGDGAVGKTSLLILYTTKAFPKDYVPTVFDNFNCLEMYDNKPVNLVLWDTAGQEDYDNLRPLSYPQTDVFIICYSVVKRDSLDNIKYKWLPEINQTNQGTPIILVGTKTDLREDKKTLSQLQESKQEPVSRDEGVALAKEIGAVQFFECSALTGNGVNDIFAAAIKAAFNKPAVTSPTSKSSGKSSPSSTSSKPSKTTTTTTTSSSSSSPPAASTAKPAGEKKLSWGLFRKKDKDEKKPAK
UniProt P34149: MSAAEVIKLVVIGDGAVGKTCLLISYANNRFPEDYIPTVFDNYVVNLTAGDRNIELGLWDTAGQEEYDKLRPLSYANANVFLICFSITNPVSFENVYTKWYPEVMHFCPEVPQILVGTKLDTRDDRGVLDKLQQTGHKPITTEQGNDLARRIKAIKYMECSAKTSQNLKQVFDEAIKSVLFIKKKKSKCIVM

T1: GST-RacGEF (GxcDD residues 395-707 containing the RacGEF domain, GST fusion) (Dictyostelium discoideum) (UniProt Q1ZXH8)
T1 sequence: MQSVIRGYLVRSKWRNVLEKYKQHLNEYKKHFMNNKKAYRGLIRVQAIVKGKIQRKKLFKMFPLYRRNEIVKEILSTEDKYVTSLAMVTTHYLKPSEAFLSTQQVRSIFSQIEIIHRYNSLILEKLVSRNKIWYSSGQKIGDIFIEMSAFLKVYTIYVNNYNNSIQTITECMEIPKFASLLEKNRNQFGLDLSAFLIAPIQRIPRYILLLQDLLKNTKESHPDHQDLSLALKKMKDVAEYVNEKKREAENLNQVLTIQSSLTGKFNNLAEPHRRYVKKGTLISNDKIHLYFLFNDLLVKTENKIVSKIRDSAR


molecular target: T1, GST-RacGEF (GxcDD residues 395-707 containing the RacGEF domain, GST fusion) (Dictyostelium discoideum); test: pull-down; GST-RacGEF on glutathione-sepharose beads incubated 3 hrs at 4°C with lysates of AX2 cells expressing GFP-Rac fusions (25 mM Tris pH 7.5, 150 mM NaCl, 5 mM EDTA, 0.5% Triton X-100, 1 mM NaF, 0.5 mM Na3VO4, 1 mM DTT); eluates immunoblotted with a GFP monoclonal antibody; only the target purified

Row | Molecule | binding
1 | GFP-RacB (from UniProt P34148 1-195) | no binding
2 | GFP-RacH (from UniProt Q9GPR7 1-200) | binds
3 | GFP-RacD (from UniProt P34150 1-254) | no binding
4 | GFP-RacE (protein, UniProt Q23862 1-223) MSEDQGSGATRVKLVVVGDGAVGKTCLLICYAQNDFPVDYVPTVFENYTATRKRGNEDIKVHLWDTAGQEEYDRLRPLSYPGADVVLLCFSTISQSSYEAIRDKWAPEVNHYIPDVPSILVGTKIDLREQQHPDPNSGKFEPITADMGISMQKQIKAKKYLEVSAKTRQGLEEVFSAAIEIVLESRGMDKKSQDGSSSASGVPSGDKPTKGKAGKKKSGCIIL | binds

Continued, values first:

Row | binding | Molecule
5 | binds | GFP-Rac1a (from UniProt P34144 1-194)
6 | binds | GFP-RacC (from UniProt P34149 1-192)
7 | binds | GFP-RacI (protein, UniProt Q9GPR2 1-205) MQKSYIKLLVLGDSKTGKTTMMMTYSTGSFPTGYVPSHVDATSLDIEYNKQVCHVGFWDSSALAEFDNTRPSTYPNTNVIILCFSIDSPTSFENVSKKWIPEIRQYAPSIHTPIILLGTKCDLREDENTINLLKENNQMPPISYKQGLALSKEIKATMYLECSSLCNQGVNEIFKQVVRCHLYCKDGVLNDPTTTTSNTSKCIIQ
